Laboratory results as given in PubChem BioAssay AID1508623 (National Center for Advancing Translational Sciences (NCATS), 2021).
Hit rate of the full screen: of about 48,000 compounds, about 450 (0.94%) were called active. Roughly 19% stayed inconclusive and do not appear here. Calls come from the whole dose curve; as a rule, active = well fitted inhibition curve with a large enough effect; inconclusive = small, poorly fitted or top-dose-only effect; inactive = no such curve, though single readings can be large or run the other way. The list shows a part of the results.

Assay: Primary qHTS for Identification of Small Molecule Inhibitors of Huntingtin Promoter Activity; note: nearly all actives have a fitted effect of over 50% in size
Details: HEK293 HTT promoter firefly luciferase reporter (activity 0% = vehicle and -100% = no light), 24 h; series mostly up to 57.5 µM; activity change, negative = inhibition: at the top concentration
In short: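 Firefly luciferase signal from promoter-reporter HEK293 cells was scaled between vehicle (0%) and zero RLU (-100%). Compounds were tested at final concentrations of up to 57.5 uM over 24 h at 37 degrees C. PTC124 at 50 uM final served as control inhibitor.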

Activity change, negative = inhibition, inactive:
Cc1ccc(CNC(=O)c2cc3sccc3n2Cc2ccc(Cl)cc2)cc1 -9.53%, CC(CCc1ccccc1)NC(=O)Cn1ncc2c3ccccc3n(Cc3ccc(F)cc3)c2c1=O (stereo not given) -12.5%, CCCn1c(=O)c2sccc2n2c(CCCC(=O)NCCc3ccc(Cl)cc3)nnc12 -8.31%, CC(=O)Nc1ccc(S(=O)(=O)NCC2CCC(C(=O)NCCc3ccccc3)CC2)cc1 (stereo not given) -2.7%, Cc1nn(C(=O)c2cccc([N+](=O)[O-])c2C)c(C)c1S(=O)(=O)N1CCOCC1 -8.86%, Cc1ccc(NC(=O)CC(C)S(=O)(=O)c2ccc3c(c2)NC(=O)CO3)c(C)c1 (stereo not given) 19.4%, CCO[C@H](Cc1ccc(OCCc2ccc(OS(C)(=O)=O)cc2)cc1)C(=O)O 11.7%, COCC(=O)Oc1c(Sc2ccc(C)cc2)c(C)nn1C(C)(C)C -24.3%, COc1cccc(N2CC(NC(=O)C(c3ccccc3)c3ccccc3)CC2=O)c1 (stereo not given) -27.8%, c1cnc2cc3c(cc2n1)C1CNCC3C1 23.1%, Cc1ccc2nc(-c3ccsc3)c(Nc3ccccc3C)n2c1 -15.5%, O=C(NCc1ccc(F)cc1)c1ccc(CSCc2cccc(Cl)c2)o1 -18.9%, COCCNC(=O)Cc1ccc(NC(=O)N2CCCCc3ccccc32)cc1 -3.47%, COCCNC(=O)c1cnn(-c2ccc(C)cc2C)c1C1CCN(C(=O)OC(C)(C)C)CC1 -16.8%, COC(=O)c1scc(-c2ccccc2)c1S(=O)(=O)Nc1ccccc1 -18.9%, Cc1ccc(-c2cc(C(F)(F)F)n3nc(C(=O)Nc4ccc(Cl)cc4Cl)cc3n2)cc1 -15.4% [at 11.5 µM], Cc1ccc(NC(=O)CSc2ncc3c(n2)-c2ccccc2N(Cc2cccc(F)c2)S3(=O)=O)cc1F -24.8%, O=C1c2ccccc2C(=O)C1(c1ccccc1)N1CCN(c2cccc(Cl)c2)CC1 -20.2%, CC1CN(C(=O)Nc2ccc(C(=O)NCCc3ccccc3)cc2)c2ccccc2S1 (stereo not given) -27.2%, CCOc1cc(-c2ccc(OC(=O)c3ccccc3F)cc2)cc(=O)c2c(C)oc(C)c12 0.743%, Cc1cc(C)nc(NS(=O)(=O)c2ccc(NC(=O)COc3ccc(Cl)cc3C)cc2)n1 -15.3%, CCOc1ccc(C(=O)Nc2cc(-c3nc4ccccc4o3)ccc2C)cc1Cl 19.7%, CCN(Cc1ccccc1)C(=O)c1c(C)oc2ncn(C)c(=O)c12 0%, O=C(CSc1nccn1Cc1ccccc1)NCc1ccc(F)cc1 1.97%, O=C(CCCCCCC(=O)Nc1ccccc1)NO, COc1ccc(-n2nc3ccc(NC(=O)c4ccc(-c5cc(Cl)ccc5Cl)o4)cc3n2)cc1 -0.841%, Clc1cccc(N2CCN(c3nc4ccccc4n4cnnc34)CC2)c1 1.51%, COc1cccc(NC(=O)C2CCCN(S(=O)(=O)c3c(C)[nH]c(=O)[nH]c3=O)C2)c1 (stereo not given) -15.1%, CCN(c1cc(C)cc(C)c1)S(=O)(=O)c1nnc(NC(=O)C2CCCCC2)s1 -3.2%, O=C(Nc1ccc(Br)c2cccnc12)c1cccc2ccccc12 -1.2%, Cc1cc(C)cc(NC(=O)CCC(=O)N2Cc3ccccc3Oc3ncccc32)c1 -20.9%, Cc1ccc(CCNC(=O)c2cc3sccc3n2Cc2ccc(C)cc2)cc1 -18.9%, CCCc1cnc2c(c1SCC(=O)N(C)c1ccccc1)c(=O)n(C)c(=O)n2C -7.27%, Cc1c(Cl)ccc2sc(NC(=O)c3ccc(S(=O)(=O)N4CCCc5ccccc54)cc3)nc12 -16%, CCc1ccccc1NC(=O)c1nnn(-c2ccc(F)cc2)c1C 36%, COc1cc2ccccc2cc1C(=O)Nc1ccc2oc(-c3ccc(F)cc3)nc2c1 41%, Cc1cc(C)cc(-n2c(SCC(=O)N3CCCCC3)nc3c([nH]c4ccccc43)c2=O)c1 -18.5%, CCOc1ccc(NC(=O)Cn2c(=O)n(Cc3ccco3)c(=O)c3oc4ccccc4c32)cc1 -7.01%, Cc1cc(C)c(CSc2nnc(C)n3c2cc2occc23)c(C)c1 -12%, CCN(Cc1ccccc1)C(=O)c1nc(-c2cccc(F)c2)n2c1CCCCC2 -26.1%, COCCCNC(=O)C1CCCN(C(=O)c2cnn(-c3ccc(F)cc3)c2-n2cccc2)C1 (stereo not given) -17.1%, Cc1ccc(SCc2nc(-c3ccc(C(=O)NCc4ccc(Cl)cc4)cc3)oc2C)cc1 2.93%, O=C(NC1CCCCC1)c1cc(Nc2cccc(C(F)(F)F)c2)nc2ccccc12 -20.8%, COc1cc(NC(=O)c2noc3c2CSc2ccccc2-3)cc(OC)c1OC -25.6%, Cc1ccn2c(=O)cc(CSc3nnc(NC(=O)c4ccccc4Cl)s3)nc2c1 9.67%, COc1cc(C(=O)Nc2nc3nc(-c4ccccc4)cc(=O)n3[nH]2)cc(OC)c1OC -15.1%, COc1ccc(CNC(=O)c2cc3c(=O)[nH]c4ccccc4c3s2)cc1 -6.32%, Cc1cccc(N2CCN(C(=O)NCc3noc4ccccc34)CC2)c1C -9.74%, CCOC(=O)c1ccccc1NC(=O)CCOc1ccccc1 33%, O=C(NC1CCCCC1)c1cc2c(Cl)nc3ccccc3c2s1 4.08%, CCOc1ccc(NC(=O)C(NS(=O)(=O)c2cccc3nsnc23)c2ccccc2)cc1 (stereo not given) -11.8%, COc1ccccc1CNC(=O)C(=O)NCC(c1ccco1)S(=O)(=O)c1cccs1 (stereo not given) -17.1%, OCCCc1nc2ccccc2n1CCCCOc1ccccc1 -30.9%, Cc1cccc(-c2noc(CN(C(=O)COc3ccc(Br)cc3C)C(C)C)n2)c1 -29%, O=C(CCN1CCN(CCO)CC1)N1c2ccccc2Sc2ccc(C(F)(F)F)cc21 2.35%, CCn1cc(C(=O)N2CCN(c3cc(C)ccc3C)CC2)c(=O)c2cc(S(=O)(=O)N3CCOCC3)ccc21 3.34%, CCOC(=O)c1c(N)n(-c2cccc(OC)c2)c2nc3ccccc3nc12 -2.78%, Cc1ccc(C)n1-c1c(C(=O)NCCC(C)C)sc2ncccc12 -26.6%, Cc1oc2ncn(CC(C)C)c(=O)c2c1C(=O)N1CCN(c2cccc(C(F)(F)F)c2)CC1 -32.3%, Cc1cccc(-n2ncc3c(Nc4ccc(Oc5ccc(Cl)cc5)cc4)ncnc32)c1 -10.6%, Cc1ccc(CNC(=O)CCCCn2c(=O)c3ccccc3n(Cc3c(C)cc(C)cc3C)c2=O)cc1 -8.75%, COc1cccc(NC(=O)CSC2=Nc3ccccc3C3=NC(CC(=O)NCCc4ccccc4)C(=O)N23)c1 (stereo not given) -12.7%, CCOC(=O)c1ccccc1NC(=O)Cn1c(=O)n(Cc2nc(-c3ccccc3)no2)c(=O)c2ccccc21 -7.77%, COc1ccccc1N1CCN(C(=O)Cn2ncc3c([nH]c4ccccc43)c2=O)CC1 -0.634%, O=C(CCc1nc(CN2CCN(S(=O)(=O)c3ccc(F)cc3)CC2)no1)N1CCCCC1 -6.95%, COc1cccc(NC(=O)CSC2=Nc3ccccc3N=C(c3ccc(F)cc3)C2)c1 -18.5%, O=C(c1ccc2c(c1)N(Cc1ccccc1F)C(=O)c1ccccc1S2(=O)=O)N1CCCCC1 -0.884%, C[C@]12C[C@H](O)[C@H]3[C@@H](CCC4=CC(=O)CC[C@@]43C)[C@@H]1CC[C@@H]2C(=O)CO 0.262%, CCc1ccc(C(=O)c2cn(CC(=O)NCCc3ccc(OC)c(OC)c3)c3nc(C)ccc3c2=O)cc1 -9.96%, O=c1nc2sc3ccccc3n2c(=O)n1-c1ccc(Cl)c(Cl)c1 -13.7%, Cc1ccc(NC(=O)c2cccc(N(C)C)c2)cc1NC(=O)c1ccc(O)cc1 8.13%, COc1ccccc1NC(=O)Cn1c(=O)n(-c2cccc(C(C)=O)c2)c(=O)c2c3c(sc21)CN(C(C)=O)CC3 -6.62%, CCN1CCN(C(=O)c2cnn(-c3ccc(F)cc3)c2-n2cccc2)CC1 -27.1%, Cc1ccc(C2C=C(c3ccc(Cl)cc3)Nc3nc(NS(=O)(=O)c4ccccc4)nn32)cc1 (stereo not given) -11.2%, O=C(CCC1N=C2c3ccccc3N=C(SCC(=O)Nc3ccccc3F)N2C1=O)NCc1ccccc1 (stereo not given) -2.16%, COc1ccccc1-c1noc(-c2ccc(N3CCC(C)CC3)c([N+](=O)[O-])c2)n1 32.7%, COc1cc(C(=O)Nc2cc3c(cc2C)n(C)c(=O)c(=O)n3C)cc(OC)c1OC 6.42%, CCC(=O)N1CCc2cc(S(=O)(=O)NC(Cc3ccccc3)C(=O)Nc3ccc(C)cc3)ccc21 (stereo not given) -23.3%, Cc1ccc(NC(=O)c2sc3nc(-c4cc5ccccc5oc4=O)[nH]c(=O)c3c2C)c(C)c1 7.16%, O=C(CC1Sc2ccc(C(F)(F)F)cc2NC1=O)Nc1ccc(Cl)c(C(F)(F)F)c1 (stereo not given) -9.3%, CCOc1ccc(-n2c(SCc3ccc(C(=O)OC)o3)nc3c([nH]c4ccccc43)c2=O)cc1 -15.5%, CCN1C(=O)c2ccccc2Sc2ccc(NC(C)=O)cc21 -7.93%, COc1cc(C(=O)Nc2cc(C)ccc2OCc2cc(=O)n3c(C)csc3n2)cc(OC)c1OC 4.69%, O=C(Nc1ccc(Br)cc1F)c1cc(S(=O)(=O)NCc2ccc(F)cc2)ccc1F -31.7%, COc1ccc(NC(=O)c2cc3c(s2)-c2c(C)cccc2OC3)c(OC)c1 -6.12%, CCCCNc1nc(Oc2ccc(=O)[nH]n2)nc(N(C)C)n1 -10.8%, C=C(C)Cn1c(=O)c2c(nc3n2CCN3c2ccc(CC)cc2)n(C)c1=O 0.0466%, CCc1nn(CC(=O)NCCCN(CC)CC)c(=O)c2cc3sc(C)cc3n12 -8.1%, CSc1ncc(C(=O)Nc2ccccc2C(=O)c2ccccc2)c(C(F)(F)F)n1 -11.2%, Fc1ccc(-n2cc(-c3ccccc3)c3c(NC4CCCCC4)ncnc32)cc1 -21.8%, Cc1ccc(-n2ncc3c(NCCCN4CCOCC4)ncnc32)cc1 -5.52%, COc1cccc(-n2c(=O)c3c(C)c(C(=O)N(C)C)sc3n(Cc3ccc(F)cc3Cl)c2=O)c1 -0.439%, CCn1c2ccccc2c2nnc(N3CCN(c4cc(C)ccc4C)CC3)nc21 3.56%, CCOc1ccccc1NC(=O)c1cc2c(Cl)nc3ccccc3c2s1 1.09%, COc1ccc(NC(=O)C2Cc3ccccc3N2C(=O)c2ccccc2)c(OC)c1 (stereo not given) 0%
